Test results reported in the supplement of paper PMC11417369.
± gives the standard deviation of the averaged measurements. The list shows a part of the results.

Each sequence was assayed on PfAP2-I AP2 domain 3 (GST-tagged) (assay: gcPBM binding intensity (ln(normalized median fluorescence intensity)); higher = stronger DNA binding).
In short: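 Using an Agilent 4 × 180k array, primer-extended double-stranded 36-bp intergenic genomic probes and negative controls were exposed for 1 h to GST-fused P. falciparum DNA-binding domains expressed in E. coli. Binding was carried out in 1× PBS with 1% milk, 0.2 mg/ml BSA, 0.5% salmon testes DNA and 0.03% Triton X-100, and protein was detected with Alexa488 anti-GST antibody and a 488 nm scan. Binding intensity is the highest Masliner-normalised natural-log median intensity across replicate spots of either probe orientation.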

Sequence | gcPBM binding intensity (ln)
AAAAAAAAAAAACATACACACATACATACAGATATA [CACACA_site4681] | 7.58 ± 0.54
TTCTATTTTATATGTGCACACATATACACCCACAAA [CACACA_site1130] | 10.3 ± 0.11
TTCTTTTTGAAACACACACACACAAGAAAATATATA [CACACA_site3110] | 8.1 ± 0.37
TTTCACTACACAAATACACACAAAAATATATGTGCA [CACACA_site2632] | 7.91 ± 0.54
AAATTTTTTGTTCAATGTACTTTTTTATTATATTTT [XGTACX_site5298] | 7.64 ± 0.73
TCTACTATTATATATTGTACAAATGATACTTATATT [XGTACX_site1819] | 7.81 ± 0.35
ATTTTTTAAATTTAAACACACATTTTGTATATGTTT [CACACA_site1654] | 7.88 ± 0.55
GATATATAATATAATACACACATTTTATGAATGTAA [CACACA_site24] | 7.66 ± 0.32
AATATATTATATATATGTACATAATGTGTAATACCT [XGTACX_site2845] | 8.06 ± 0.38
TTAAAATTTTTCAAAAGTACATAAATAATATATATT [XGTACX_site4694] | 7.68 ± 0.49
AAAAAAAATTCATATTGTACTTTTAAATTAAAGAAA [XGTACX_site4521] | 7.71 ± 0.2
TTTATTTGTTCATGCGTGCACTTGATAACAATGTAC [GTGCAC_site9561] | 9.99 ± 0.53
TTTTTTTTTGTTAAAGTGCATATATTAAATTTTCCT [GTGCAC_site9677] | 9.64 ± 0.3
GGAAAAAAATATAAAAGTACTTTTTATTTATTTTAT [XGTACX_site7418] | 7.79 ± 0.4
CGTTATATCAAAGGAGTGCATTATGAATACGTTTTA [GTGCAC_site9837] | 11.4 ± 0.65
AGTGAATATCTAAAATGTACATAAATAAATAAATAA [XGTACX_site8293] | 8.22 ± 0.77
AAAAAAATAACAAAAGTGCATTTTTATGAGTTATCT | 8.91 ± 0.19
ATATATAATTAATAAAGTACATTAATTATTTCTTTT [XGTACX_site3034] | 7.46 ± 0.49
TATAATTAAAATTTGTGTACGTATGACAAAACATTT [XGTACX_site7072] | 7.92 ± 0.52
AGATACAAGCACTATAGTACACATACTAAAAATATA [XGTACX_site5849] | 8.55 ± 0.057
TTTCCTTACCCTTTCCTGGTGTAGAAATTATACTCT [TGCATGCA_negctrl_site116] | 7.79 ± 0.56
AATCATGCTCCGGAAAGTACATAAATAAATAAATAA [XGTACX_site1690] | 8.29 ± 0.69
GAAAGGACAAGAATAGTGCACATGCAATGTTATTTT [GTGCAC_site9985] | 10.7 ± 0.11

Sequence | gcPBM binding intensity (ln)
ACAAAATTTTTAAGAACACACAAAAATGTACTATCG [CACACA_site2550] | 7.71 ± 0.4
AAAAAAAAAAAACATACACACATACATACATATATA [CACACA_site8222] | 7.5 ± 0.2
CACATACACATACAAACACACATTATGTATATATAT [CACACA_site1599] | 8.16 ± 0.84
ATATATACAACTAAAGAACACACATCATTGTTCATT [CACACA_site9224] | 7.6 ± 0.65
AAACAATTTTTTAAAAGTACTTGAAAATTGTGAAAT [XGTACX_site2461] | 8.11 ± 0.19
AAAAAAATTACGCAAGTGCATATAATTTAACAAAAA | 9.625 ± 0.007
ATATATATATATCACGCACACACGAATTTTAAATAT [CACACA_site3131] | 9.55 ± 0.14
AATGGTAATCCACATACACACACACCGACACATATA [CACACA_site8876] | 8.13 ± 0.5
ATCGCGAAGTAGCATTCACACACAGCAAAATATATA [CACACA_site9162] | 7.75 ± 0.49
AACATTTATATAAAAGAACACACATATAAAATATTA [CACACA_site9199] | 7.62 ± 0.61
CATTTACCCTTATTAACACACAAAATAAAATACGCT [CACACA_site7249] | 8.16 ± 0.25
AAATAACAAAAGAAGGTGCTCATAAAAATTCATACA [GTGCAC_site9864] | 8.51 ± 0.28
ATACAATGATATATACATATATATATATATATATAT [TGCATGCA_negctrl_site359] | 9.49 ± 0.96
AAATTATAAAAAAAAAAAAAAAAAAAAAAAAAAAAA [XGTACX_negctrl_site501] | 8.24 ± 0.67
AAAAAAAAAAAAAAAAAAAAAAAAAAAAAAAAAAAA [CACACA_negctrl_site204] | 10.5 ± 0.27
AACAATAGTAAAAATACACACATTAAACTTCATTTC [CACACA_site2126] | 7.41 ± 0.57
ATAGGCAAAAAGTGTACACATTCATTTATATAAATA [CACACA_site4480] | 8.31 ± 0.26
AGATCTATTATTTTTTGTACTTATATATAAACTTAA [XGTACX_site1737] | 7.79 ± 0.69
AATGGTATAAACAATACACACATAATATAAATATTG [CACACA_site6878] | 7.49 ± 0.5
TTATATATAAATGTGTGTACTTATAAAATAATCATT [XGTACX_site5370] | 7.91 ± 0.28
TTCTATATATTTGGAAGTACATTATATTTATTTTTT [XGTACX_site3172] | 7.58 ± 0.42
TAAAATTTTTGTTTTTGTACGAAACATCAATTTTAC [XGTACX_site4963] | 7.5 ± 0.62
CATATATAAATATGTACACACATATGTATGATCTCA [CACACA_site3868] | 7.815 ± 0.035

Sequence | gcPBM binding intensity (ln)
TTATTTATAAGTAATATTATATATTCTTTTAATACA [CACACA_negctrl_site471] | 7.34 ± 0.39
CGTATAACATATGACACACACACATACATACACAAA [CACACA_site1803] | 8.05 ± 0.33
GATTTATATAATTCAAGTACTAAAAATATTTTTAAT [XGTACX_site5285] | 7.67 ± 0.5
TAACATTAAAATAAAAGTACTTAATAATATTAAGTA [XGTACX_site5920] | 7.53 ± 0.2
AAAAAAAATATCTATGCATGTAATATTATGATATTG [TGCATGCA_site546] | 7.76 ± 0.59
TTAATAATAAATGAAAGTACATATAAAAAAAAAAAA [XGTACX_site717] | 8.04 ± 0.49
AATAGTAAAAGATATACACACACCAAAAAATAGAAT [CACACA_site2289] | 8.13 ± 0.44
ATTATACATATGTATGCACACATACATACACATATA [CACACA_site9155] | 8.72 ± 0.057
ATATATATATGTTTATGTACTTATAATAATATAACT [XGTACX_site4828] | 8.98 ± 0.12
TAATTTAAGAAAAAATGTACACAAATATAATAATAG [XGTACX_site8317] | 8.22 ± 0.54
ATACATATATGTGTGTGTACATAAATGTATATATTT [XGTACX_site6242] | 7.93 ± 0.38
GTATCTTTCAAAATATGTACATATATATATGTGTGT [XGTACX_site3512] | 8.1 ± 0.45
AACTTTATTCCTAATTGTACACATATATATATATAT [XGTACX_site6823] | 9.16 ± 0.53
GCATGGAACCATATATGTACATATATAAATAAATAA [XGTACX_site4996] | 8.04 ± 0.4
ATCCGCTGCCTTTTGGTGCAGAACATAATCATGTAA | 9.915 ± 0.021
TTTAAAATATTAAAATGTACATATATATATATATAT [XGTACX_site6784] | 9.22 ± 1
ACATAAATATATTTTTCACACATCCTTAGTTATGAA [CACACA_site5179] | 7.92 ± 0.59
TATATATATATATATACACACATACATATATATATT [CACACA_site8185] | 9.31 ± 0.56
AATGTATTTAAACTGACACACAAAAAAAATAAAATA [CACACA_site2138] | 7.92 ± 0.54
ATATTGTAAGTAAACACACACACATCTATAGGTATA [CACACA_site6462] | 7.79 ± 0.65
TGTATATTTGATTCATGTACATATTTTATTTTAACT [XGTACX_site5169] | 7.93 ± 0.35
CCTATATAATTATAATGTACTTGTAAAAAATATAAC [XGTACX_site2864] | 7.99 ± 0.4
CAGATTTATTCAAACGCATGCTGTTTTAAAATAAAA [TGCATGCA_site874] | 7.44 ± 0.47

Sequence | gcPBM binding intensity (ln)
AAATATAAAAAATATACACACATATATAATATATAT [CACACA_site2963] | 7.64 ± 0.49
CTATCAAATAATAGCAAACACACAAAAAATAAAAAA [CACACA_site4147] | 7.75 ± 0.55
AAAAAAAAAAAAAAATCACACATTGGTTAAATATTA [CACACA_site5344] | 8.04 ± 0.65
ATTCATACATGCACACGTACATATTTAAATATAAAA [XGTACX_site8388] | 8.8 ± 0.52
ATTTTTTATGAAAACATAAAAAAATGAGATAACCAT [CACACA_negctrl_site894] | 7.69 ± 0.61
AAAAAAAAAAGACACACACACACACGGACACATACA [CACACA_site7363] | 8.28 ± 0.31
GGTATTTATGGACGCGTGCACACACATATGAACAAA | 9.9 ± 0.14
TTTTGATTTTTTTATTGTACCCATAAACATATAATT [XGTACX_site5202] | 8.03 ± 0.51
TACAAACAATTAAACAAACACACATATACATGTATA [CACACA_site2061] | 7.49 ± 0.35
TATTTTTGAAGTTGCACACACAAAAATAAAAAGTAT [CACACA_site418] | 8.615 ± 0.049
ATATTTACTCACGTCTTGCACTGAGCAAGCATTATA | 9.03 ± 0.38
TCATGTTTTTAATATTGTACTCTCATTTTATATATC [XGTACX_site8412] | 7.88 ± 0.45
AGCTATTAATTTATTACATGCAAGATTAAAAGACTA [TGCATGCA_site281] | 7.58 ± 0.56
ATTTTTTTTTTTTGTACATACCACATATACAAAACA [CACACA_negctrl_site1240] | 8.23 ± 0.4
TTTTTTTTTTTCTCCATACACACTTGATAAAACTTT [CACACA_site615] | 8.19 ± 0.79
TAATTGATTCTTCACCGTACTCACACATATATATAT [XGTACX_site6530] | 8.99 ± 0.085
CACACCACCAACAAAAGTACATACATATATATATAT [XGTACX_site5781] | 9.29 ± 0.13
TATATATTGCCCTTCACACACACACCCATATATATA [CACACA_site2493] | 9.185 ± 0.021
ATATATTATAAATGTAGTACCGTTACATAGTCATAG [XGTACX_site390] | 7.92 ± 0.47
ATCAAGCACGAACACACACACACACGCACGCCCACA [CACACA_site6308] | 8.62 ± 0.47
ACTACGAGTCGTAGAGTGCAGTCTGGAGAAAAGTAC [GTGCAC_site9769] | 9.41 ± 0.24
